# Data reported in PubChem BioAssay AID686979 (National Center for Advancing Translational Sciences (NCATS), 2013).
# “And” between values parts separate entries of the source, which are not always exact repeats. Identical values can stand only once. Among all 420,000 compounds or so, about 50,000 (12%) were called active. Inconclusive results, whose numbers are uncertain, are shown with a selection of clear calls. Calls come from the whole dose curve; as a rule, active = well fitted inhibition curve with a large enough effect; inconclusive = small, poorly fitted or top-dose-only effect; inactive = flat fitted curve, though single readings scatter. Where the call is inconclusive, the potency comes from a doubtful curve fit.
# Assay: qHTS for Inhibitors of human tyrosyl-DNA phosphodiesterase 1 (TDP1): qHTS in cells in presence of CPT; note: nearly all actives have a fitted effect of over 55% in size
# Details: chicken DT40 Tdp1-/-;hTDP1 cells + 20 nM CPT, ATP luminescence, 48 h; activity change, negative = growth inhibition: at 46.2 µM (top of the series) unless noted
# How it was run: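 Cell growth measured by CellTiter-Glo luminescence after a minimum 48 h, 37 C compound exposure with 20 nM CPT in Tdp1-knockout DT40 cells stably expressing hTDP1, seeded 400/well; qHTS titration format.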
# % is set by controls: 0 for no effect and ±100 for the full control effect; potency is the fitted concentration of half-maximal effect; tags give direction and shape of the fitted curve.
Structure (SMILES),"activity change, negative = growth inhibition",Potency
COc1ccc(CCNC(=O)c2cnn(-c3cccc(C)c3)c2C2CCNCC2)cc1OC,inactive: -6.73%,–
COc1ccc(CNc2oc(COc3ccc(Cl)cc3)nc2C#N)cc1,–,"inconclusive: 29.1 µM [inhibitor, partial curve, poor fit]"
Cc1cc(C)c(S(=O)(=O)N2CCCCC2CCNC(=O)C(=O)NCc2ccccn2)c(C)c1 (stereo unspecified),–,"inconclusive: 18.4 µM [inhibitor, single point]"
COc1cc(/C=N\NC(=O)c2ccc(-c3ccccc3)cc2)cc(OC)c1O,–,"inconclusive: 29.1 µM [inhibitor, single point]"
O=C(c1ccccc1)N1CCC(c2nc3ccccc3o2)CC1,–,"inconclusive: 16.4 µM [inhibitor, single point]"
COc1ccccc1C(=O)NCC(=O)N/N=C/c1ccc2c(c1)OCO2,–,"inconclusive: 29.1 µM [inhibitor, single point]"
CCN(CC)C(=O)c1sc2c(c1C)c(=O)n(-c1ccc(C)c(C)c1)c(=O)n2CC(=O)Nc1ccc(OC)cc1OC,inconclusive: -32.2% [inhibitor],–
CC1(C)CC2CC(C)(CN2C(=O)COC(=O)c2cc(Cl)cc(Cl)c2N)C1 (stereo unspecified),–,"inconclusive: 20 µM [inhibitor, single point]"
CC(=O)c1ccc(NC(=O)NCc2ccc(F)cc2)cc1,inactive: 7.22%,–
CC(C)Cc1cc(CN2CCC(CO)(Cc3cccc(C(F)(F)F)c3)CC2)[nH]n1,–,"inconclusive: 29.1 µM [inhibitor, single point]"
Cc1ccc(-c2nc(CSc3nc4ccccc4c(=O)n3CCO)cs2)cc1,–,"inconclusive: 23.1 µM [inhibitor, single point]"
COc1ccc(OC)c(CNS(=O)(=O)c2cc(-c3onc(C)c3C)ccc2C)c1,–,"inconclusive: 29.1 µM [inhibitor, single point]"
COc1cc2c(cc1OC)C(C)N(C(=O)c1cc3c(=O)oc4ccc(C)cc4c3s1)CC2 (stereo unspecified),–,active: 13 µM
CCc1nnc(NC(=O)CSc2nnc(COc3ccccc3)n2-c2ccc(C)cc2)s1,–,"inconclusive: 29.1 µM [inhibitor, single point]"
CC(OC(=O)c1cc(Cl)ccc1[N+](=O)[O-])C(=O)NC(C)c1ccc(F)cc1 (stereo unspecified),–,"inconclusive: 18.4 µM [inhibitor, single point]"
CCOC(=O)N1CCN(CC(=O)Nc2ccccc2C(=O)Nc2ccccc2)CC1,–,"inconclusive: 16.4 µM [inhibitor, single point]"
Cc1cccc(C(O)c2cnc(C)n2Cc2ccccc2)c1 (stereo unspecified),–,"inconclusive: 29.1 µM [inhibitor, single point]"
CCN1CCN(CCCNC(=O)c2cc3c(=O)[nH]c4ccccc4c3s2)CC1,–,"inconclusive: 32.6 µM [inhibitor, single point]"
C[C@H](NC(=O)c1nc[nH]c1C(=O)NCc1ccc(CNC(=O)OC(C)(C)C)cc1)C(=O)OCc1ccccc1,–,active: 20.6 µM
CN(C)c1nc(-c2cccnc2)nc(-c2ccccc2)c1C#N,inactive: -22.8%,–
C=C(C)CN(CC)Cc1c(C(=O)N(C)CCCC)nc2ccccn12,–,"inconclusive: 29.1 µM [inhibitor, single point]"
CC(=O)c1cccc(NC(=O)Nc2cccnc2)c1,–,"inconclusive: 20.6 µM [inhibitor, partial curve]"

Structure (SMILES),"activity change, negative = growth inhibition",Potency
CCOc1ccc(C(=O)Nc2nnc(S(=O)(=O)N(C)Cc3ccco3)s2)cc1,inactive: -7.8%,–
CCOC(=O)c1nn(-c2ccccc2)c(C#N)c1NC(=O)c1nn(CC)cc1Br,–,active: 14.6 µM
COc1ccc(/C=C/C(=O)Nc2cc(-c3nc4ccccc4o3)ccc2OC)cc1,–,"inconclusive: 14.6 µM [inhibitor, partial curve]"
COc1ccc(OC)c(CN2CCC(C(=O)N(C)CCc3ccc(OC)c(OC)c3)CC2)c1,inactive: -3.15%,–
CC(=O)NC12CC3CC(C1)CC(C(=O)Nc1ccc(C)c(S(=O)(=O)N4CCCCCC4)c1)(C3)C2,–,"inconclusive: 23.1 µM [inhibitor, single point]"
COc1ccc(-c2c(-c3cc(OC)cc(OC)c3)n(C)c3ccc(-c4ccc(N(C)C)nc4)cc23)cc1,–,active: 20.6 µM
O=C(CSc1nnc(-c2ccco2)o1)NCCc1ccccc1,inactive: 28.6%,–
CCC(=O)c1ccccc1OCCCN1CCC(Cc2ccccc2)CC1,–,"inconclusive: 29.1 µM [inhibitor, single point]"
O=C(CSc1ccccc1C(=O)N1CCN(c2ccccc2)CC1)N1CCCC1,–,"inconclusive: 25.9 µM [inhibitor, single point]"
COc1cccc(OC)c1C(=O)NC(=S)N1CCN(c2ccc(C(F)(F)F)cc2[N+](=O)[O-])CC1,–,"inconclusive: 29.1 µM [inhibitor, single point]"
Cc1c(C(=O)NCc2ccc3c(c2)OCCO3)sc(=O)n1Cc1ccc2c(c1)OCO2,–,"inconclusive: 14.6 µM [inhibitor, partial curve, poor fit]"
O=C1C2CC=CCC2C(=O)N1Cc1nnc(-c2ccccc2Br)o1 (stereo unspecified),inactive: 3.63%,–
Cc1cc(C)n2c(Nc3ccc4c(c3)OCCO4)c(-c3ccccc3)nc2n1,–,"inactive and inconclusive: 29.1 µM [inhibitor, single point]"
COc1ccc([C@H]2C[C@H](O)[C@@H](n3cc(-c4ccc(F)cc4)nn3)CN2C(=O)c2cccs2)cc1,–,"inconclusive: 29.1 µM [inhibitor, single point]"
O=C1Nc2c(Cl)cc(Cl)cc2C1=O,–,active: 7.31 µM
O=C(OCC(=O)N1CCCCC1)c1ccc(OC(F)(F)F)cc1,inactive: -5.48%,–
COc1cc2ncnc(Nc3cccc(Br)c3)c2cc1OC,–,active: 16.8 µM
COC(=O)CCC(=O)OC1(C)C(=O)C2=CN(C3CC3)C(c3ccc(OC)cc3)=CC2=C(Br)C1=O (stereo unspecified),–,"inconclusive: 4.61 µM [inhibitor, full curve]"
CCN(CC)CCN(C(=O)c1cc(Cl)sc1Cl)c1nc2cc3c(cc2s1)OCO3,inactive: -22.6%,–
CC(=O)NC(c1cccc(F)c1)c1nc(-c2cnn(C)c2)cs1 (stereo unspecified),–,"inconclusive: 20.6 µM [inhibitor, single point]"
CC(C)(C)S(=O)N1Cc2cc(=O)n(Cc3ccccc3)cc2[C@@H]1CCO (stereo partly specified),inactive: -4.87%,–
CCOC(=O)N1CCN(C(=O)c2cc3c(s2)-c2c(C)cccc2OC3)CC1,–,"inconclusive: 29.1 µM [inhibitor, single point]"

Structure (SMILES),"activity change, negative = growth inhibition",Potency
CCOc1ccc(-c2cccc(NC(=O)c3ccco3)c2)nn1,–,"inconclusive: 23.1 µM [inhibitor, single point]"
Cn1nccc1-c1ccc(C(=O)NCc2ccc(Cl)cc2)c2occc12,–,"inconclusive: 25.9 µM [inhibitor, single point]"
FC(F)(F)c1cccc(N2CCN(c3nc4ccccc4n4cnnc34)CC2)c1,–,"inconclusive: 29.1 µM [inhibitor, single point]"
Cc1nc2c(C)cccn2c(=O)c1NC(=O)c1ccc(Br)o1,–,"inconclusive: 9.2 µM [inhibitor, partial curve]"
Cc1ccc2nc(-c3ccc(NC(=O)COC(=O)c4ccc(=O)[nH]c4)cc3)sc2c1,inactive: -11.3%,–
CN1CCN(S(=O)(=O)c2ccc(NC(=O)Cc3ccc([N+](=O)[O-])cc3)cc2)CC1,inactive: -3.89%,–
O=C1c2ccccc2/C(=C\C#Cc2ccccn2)N1c1ccccc1,–,"inconclusive: 29.1 µM [inhibitor, single point]"
N=C1SCC(=O)N1c1ncc(Cc2cccc(Cl)c2)s1,–,"inconclusive: 29.1 µM [inhibitor, single point]"
O=C(O)c1ccccc1NS(=O)(=O)c1ccc(NNC(=S)Nc2ccc(OC(F)F)cc2)c([N+](=O)[O-])c1,–,"inconclusive: 16.4 µM [inhibitor, single point]"
CCOC(=O)C1C(C)C(C(C)(C)C)N(S(=O)(=O)c2ccc(C)cc2)C1c1ccccc1 (stereo unspecified),–,"inconclusive: 23.1 µM [inhibitor, single point]"
CCCCCCCCN1C(=O)[C@H](CC(=O)N2CCC(c3ccccc3)CC2)C[C@@]2(C(=O)OC)CCCCC=C12,–,"inconclusive: 29.1 µM [inhibitor, single point]"
O=C(NCc1cccnc1)c1ccc(-c2cc3ccccc3oc2=O)cc1,–,active: 11.6 µM
O=C(NN=C1CCN(Cc2ccccc2)CC1)c1cc2ccccc2cc1O,inactive: 4.45%,–
c1ccc(-n2c3ccccc3c3ccccc32)cc1,–,"inconclusive: 20.6 µM [inhibitor, partial curve, poor fit]"
Cc1ccc(C(NC(=O)C2CCN(Cc3ccc(Oc4ccccc4)cc3)CC2)c2ccccn2)cc1 (stereo unspecified),–,"inconclusive: 29.1 µM [inhibitor, single point]"
C=CCn1c(COc2ccccc2F)nnc1SCC(=O)Nc1cc2oc3ccccc3c2cc1OC,–,"inconclusive: 23.1 µM [inhibitor, single point]"
Oc1c(Cl)cc(Cl)c2cccnc12,–,active: 2.91 µM and active: 18.4 µM
CCOC(=O)C1=C(C)NC2=C(C(=O)C(C(=O)OCC)C(c3ccco3)C2)C1c1ccccc1C (stereo unspecified),–,active: 20 µM
COc1ccc(CN(C)CC(=O)Nc2cccc(S(=O)(=O)N3CCCC3)c2)cc1F,–,"inconclusive: 20.6 µM [inhibitor, single point]"
Cc1ccc(NC(=O)CSc2nnc(-c3cc4occc4n3C)n2-c2ccccc2C)c(C)c1,–,"inconclusive: 20.6 µM [inhibitor, single point]"
CC(=O)c1sc(NC(=O)CN2C(=O)NC3(CCCC3)C2=O)nc1-c1ccccc1,inactive: 1.25%,–
CC(=O)c1sc(Nc2nc3ccc(F)cc3s2)nc1C,–,"inconclusive: 16.4 µM [inhibitor, single point]"
